Measured values published in PubChem BioAssay AID485360 (National Center for Advancing Translational Sciences (NCATS), 2010).
Out of some 230,000 compounds screened, about 1,500 (0.65%) were called active. This list was built around the results that the source calls inconclusive (neither active nor inactive); the mix of calls is not that of the screen. Calls follow the shape of the dose curve; as a rule, active = well fitted inhibition curve with a large enough effect; inconclusive = small, poorly fitted or top-dose-only effect; inactive = no such curve, though single readings can be large or run the other way. Potencies beside an inconclusive call are fits to weak or partial responses and may not hold up.

What follows are compounds tested against Lethal(3)malignant brain tumor-like protein 1 (Homo sapiens) (UniProt Q9Y468) (assay: qHTS Assay for the Inhibitors of L3MBTL1). Details: AlphaScreen L3MBTL1–H3K9me1 peptide binding; activity, negative = inhibition: at 57.1 µM (top of the series).
Summary of the method: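 Read-out is AlphaScreen signal from streptavidin donor and nickel chelate acceptor beads (10 ug/mL final each) bridging L3MBTL1 (50 nM) and biotinylated K9-monomethylated H3(1-15) peptide (75 nM), after 30 min compound exposure at room temperature.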
% is scaled to controls: 0 for no effect and ±100 for the full control effect; potency is read from the fitted curve at half-maximal effect; tags tell the direction and shape of the fitted curve.
Also: nearly all actives have a fitted effect of over 60% in size.

Row | SMILES | Potency | activity, negative = inhibition
1 | O=S1(=O)CC(O)C(N2CCC(c3ccccc3)CC2)C1 (stereo not drawn) | inconclusive: 7.08 µM [inhibitor, single point] | 
2 | O=C(NNc1nc(-c2ccccc2)cs1)c1ccc(F)cc1 | inactive | 
3 | O=C(Nc1ccc2oc(Cc3ccc(Cl)cc3)nc2c1)c1cccnc1 | inconclusive: 5.62 µM [inhibitor, single point] | 
4 | O=NNc1nc2ccccc2n1Cc1ccccc1 | inconclusive: 22.4 µM [inhibitor, partial curve] | 
5 | CCOc1ccc(NC(=S)N(CCc2c(C)[nH]c3ccccc23)Cc2cccnc2)cc1 | inconclusive: 14.1 µM [inhibitor, partial curve] | 
6 | CN1CCN(c2ccc(-c3cccc(NC(=O)COc4ccc(Cl)cc4)c3)nn2)CC1 | inactive | 
7 | CCC(=O)Oc1ccc(C/C(=N\O)c2ccc(O)cc2O)o1 | active: 31.6 µM | 
8 | CC1=CC2(O)OCCN(CCO)C2=CC1=O (stereo not drawn) | inconclusive: 15.8 µM [inhibitor, single point] | 
9 | O=C(CN1CCN(c2ccccc2F)CC1)NCc1ccc(Cl)cc1 | inconclusive: 6.31 µM [inhibitor, single point] | 
10 | CC(c1ccccc1)N1C(=O)/C(=C/c2ccncc2)SC1=S (stereo not drawn) | inconclusive: 3.98 µM [inhibitor, full curve] | 
11 | CC(=O)c1ccc(NC(=O)CC2Nc3cccc4cccc(c34)NC2=O)cc1 (stereo not drawn) | active: 3.55 µM | 
12 | Cc1ccc(S(=O)(=O)n2ccc3cccnc32)cc1 | inconclusive: 6.31 µM [inhibitor, single point] | 
13 | COCCNC(=O)Cn1nc(C(F)(F)F)cc1C | inconclusive: 3.98 µM [inhibitor, single point] | 
14 | CCCCN(Cc1cc2cc(OC)ccc2[nH]c1=O)C(=O)c1ccccn1 | inconclusive: 6.31 µM [inhibitor, single point] | 
15 | CC[n+]1ccc(C[n+]2ccccc2)c2ccccc21 | inconclusive: 25.1 µM [inhibitor, single point] | 
16 | Cc1ccc(NC(=O)CN2C(=O)S/C(=C\c3ccc(OCC(=O)O)c(Br)c3)C2=O)cc1 | inconclusive: 35.5 µM [inhibitor, single point] | 
17 | CN1CCN(c2ccc(NC(=O)c3ccc(C#N)cc3F)cc2Cl)CC1 | inconclusive: 7.08 µM [inhibitor, full curve] | 
18 | N#CC1=C(SCC(=O)c2ccccc2)NC2=C(C(=O)CCC2)C1c1ccco1 (stereo not drawn) | inconclusive: 39.8 µM [inhibitor, single point] | 
19 | O=C(NCc1ccc2c(c1)OCO2)C1CC(=O)N(C2CCCCCC2)C1 (stereo not drawn) | inconclusive: 3.55 µM [inhibitor, partial curve] | 
20 | CCOc1ccc(CNc2ccc(N3CCCC3)cc2)cc1 | inconclusive: 35.5 µM [inhibitor, single point] | 
21 | CC(C)(C)OC(=O)NCC(=O)N1CCC(C(=O)O)CC1 | inactive | 
22 | O=C(CCc1ccccc1)N1CCN(c2ccc(F)cc2)CC1 | inactive | 
23 | Cc1cc(-c2nnc3n2N=C(c2ccc(-c4ccccc4)cc2)CS3)n[nH]1 | inconclusive: 15.8 µM [inhibitor, partial curve] | 
24 | CC1S/C(=N/N=C/c2cccs2)NC1=O (stereo not drawn) | inconclusive: 0.794 µM [inhibitor, single point] | 
25 | Cc1cccc(/N=C/c2c(C)[nH]n(-c3ccccc3)c2=O)n1 | inactive | 

Row | SMILES | Potency | activity, negative = inhibition
26 | CCOC(=O)c1c(NC(=O)Cc2ccccc2)sc2c1CCN(C)C2 | inconclusive: 20 µM [inhibitor, single point] | 
27 | COc1ccc2oc(=O)c(C(=O)Nc3ccccc3C)cc2c1 |  | inactive: -0.535% [at 2.29 µM]
28 | CSc1nc(N(C)CCO)c2sc3nc(-c4ccco4)c4c(c3c2n1)CCC4 | inconclusive: 31.6 µM [inhibitor, single point] | 
29 | COc1ccc(/C=N/N2CCN(C3c4ccccc4-c4ccccc43)CC2)cc1O | inconclusive: 22.4 µM [inhibitor, partial curve] | 
30 | NS(=O)(=O)c1cc(Cl)c(NC(=O)COC(=O)c2ccccn2)c(Cl)c1 | inconclusive: 39.8 µM [inhibitor, single point] | 
31 | COC(=O)C1=NNC2(c3ccc(C)cc3)C(=O)N(c3cccc(C)c3C)C(=O)C12 (stereo not drawn) | inconclusive: 39.8 µM [inhibitor, single point] | 
32 | COc1ccc2c(c1OC)C(=O)OC2CC(=O)c1ccc(O)cc1 (stereo not drawn) | inactive | 
33 | O=C(Cc1ccccc1)Nc1nc2ccccc2[nH]1 | inactive | 
34 | OC(CCN1CCCC1)(c1ccccc1)C1CCCCC1 (stereo not drawn) |  | inconclusive: -30.5% [inhibitor]
35 | Cc1cc(C=O)c(C)n1-c1ccc(Cl)c(C(=O)O)c1 | active: 3.98 µM | 
36 | O=C(O)c1cccc2c1C(=O)c1ccc(-c3ccc(F)cc3OCc3ccccc3)cc1S2(=O)=O | inconclusive: 39.8 µM [inhibitor, single point] | 
37 | COc1cccc(/C=N\NC(=O)c2ccc(Cn3cc(Br)c([N+](=O)[O-])n3)o2)c1O | inactive | 
38 | COC(=O)C1=CC(C(=O)c2cccs2)=NN(c2ccc(OC)cc2)C1C(=O)OC (stereo not drawn) | inconclusive: 28.2 µM [inhibitor, partial curve] | 
39 | COC(CN1C(=O)C(=O)/C(=C(/O)c2ccccc2)C1c1ccccn1)OC (stereo not drawn) | inactive | 
40 | CCc1nn(CC(=O)NCCCN2CCc3ccccc3C2)c(=O)c2cc3sccc3n12 | inconclusive: 39.8 µM [inhibitor, single point] | 
41 | CCOc1cc(N2CCOCC2)c(OCC)cc1NC(=O)c1ccc(C)cc1 | inconclusive: 10 µM [inhibitor, full curve] | 
42 | Cc1n[nH]c(C)c1CCC(=O)N/N=C/c1cccc([N+](=O)[O-])c1 | inactive | 
43 | NS(=O)(=O)c1ccc(CNC(=O)CSc2ccccc2)cc1 | inconclusive: 35.5 µM [inhibitor, single point] | 
44 | COc1ccc(F)cc1S(=O)(=O)Nc1cc2c3c(c1)CCN3C(=O)CC2 | inactive | 
45 | CCOc1ccccc1N1C(=O)CC(Nc2ccc(N3CCOCC3)cc2)C1=O (stereo not drawn) | active: 28.2 µM | 
46 | COc1ccc(C(=O)N/N=C/c2cccc3cccnc23)cc1 | inconclusive: 35.5 µM [inhibitor, single point] | 
47 | C/C(=N/NC(=O)CNC(=O)/C=C/c1ccco1)c1ccc(Cl)cc1 | inconclusive: 35.5 µM [inhibitor, partial curve] | 
48 | CC1(C)CC(=O)C(=CN2CCOCC2)C(=O)C1 | inconclusive: 0.282 µM [inhibitor, full curve, poor fit] | 
49 | CN(c1ccc(C(=O)Nc2cccnc2)cc1)S(C)(=O)=O | inconclusive: 3.98 µM [inhibitor, single point] | 
50 | COc1cccc(/C=N/NC(=O)c2ccc(OCc3cccc(Br)c3)cc2)c1 | inconclusive: 39.8 µM [inhibitor, single point] | 

Row | SMILES | Potency | activity, negative = inhibition
51 | CCOc1cccc(=O)c2c(C)n(-c3ccc(C(=O)O)cc3)c(C)c12 | inconclusive: 20 µM [inhibitor, single point] | 
52 | N=c1c(C(=O)NCc2ccccc2)cc2c(=O)n3ccccc3nc2n1CCCN1CCOCC1 | inactive | 
53 | CN1CCN(CC(=O)c2cc(C(C)(C)C)c(O)c(C(C)(C)C)c2)CC1 | inactive | 
54 | O=C(CNc1ccccc1)Nc1ccc(F)cc1 | inactive | 
55 | COc1ccc2cc(C(=O)C3CCCN(Cc4ccccn4)C3)ccc2c1 (stereo not drawn) | inconclusive: 15.8 µM [inhibitor, partial curve] | 
56 | CN(CC(=O)Nc1ccccc1Cl)C(=O)CSc1nncn1C | inactive | 
57 | COc1ccc(OCc2cc(=O)[nH]c3ccccc23)cc1 | inconclusive: 0.708 µM [inhibitor, single point] | 
58 | CCC1CCCCN1C(=S)NC(=O)c1ccc(F)c(S(=O)(=O)N2CCOCC2)c1 (stereo not drawn) | inactive | 
59 | O=C(c1cccc([N+](=O)[O-])c1)N1CCN(C/C=C/c2ccccc2)CC1 | inactive | 
60 | O=C(CN1C(=O)c2cccc3cccc1c23)N1CCN(c2ccccc2)CC1 | inconclusive: 17.8 µM [inhibitor, partial curve] | 
61 | CC/C(=N\NC(=O)COc1ccc(Br)cc1)c1ccc(OC)c(OC)c1 | inconclusive: 1 µM [inhibitor, full curve, poor fit] | 
62 | COc1cc(CNc2ccc(N3CCCC3)cc2)ccc1OCc1ccccc1 | inconclusive: 39.8 µM [inhibitor, single point] | 
63 | CC(=O)c1ccc(C(=O)N2CCc3c([nH]c4ccccc34)C2c2ccccn2)s1 (stereo not drawn) | inconclusive: 5.01 µM [inhibitor, full curve, poor fit] | 
64 | COc1ccc(C(=O)O)cc1S(=O)(=O)N(C)CCc1ccccn1 | inactive | 
65 | O=C(Nc1ccc2c(c1)Cc1ccccc1-2)c1ccc(Br)o1 | inconclusive: 11.2 µM [inhibitor, partial curve] | 
66 | CCN(c1ccc(NS(=O)(=O)c2cc(Cl)ccc2Cl)cc1)C(C)C | inconclusive: 17.8 µM [inhibitor, partial curve] | 
67 | NS(=O)(=O)c1cccc(NC(=O)c2cccc(N3C(=O)c4ccccc4C3=O)c2)c1 | inactive | 
68 | CC(C)(C)N=C1NN=C(c2ccc(S(=O)(=O)N3CCCCC3)cc2)CS1 | inactive | 
69 | CC(=O)c1ccc(NC2c3ncccc3C(=O)N2Cc2ccc(F)cc2)cc1 (stereo not drawn) | inactive | 
70 | Nc1cnn(Cc2ccccc2F)c1 | inconclusive: 28.2 µM [inhibitor, partial curve] | 
71 | COc1ccc(N2CCN(S(=O)(=O)c3ccc(Cl)s3)CC2)cc1 | inactive | 
72 | CSc1nc(C)c(CCOCc2ccc(F)cc2)c(=O)[nH]1 | inconclusive: 3.98 µM [inhibitor, full curve, poor fit] | 
73 | CNC(=S)N1N=C(c2ccc(C)cc2)CC1c1cc(OC)ccc1OC (stereo not drawn) | inconclusive: 17.8 µM [inhibitor, single point] | 
